From publication PMC5397843
Results are given in words; binding and its absence hold for the method and conditions named. For part of these data: In cells and extracts the contact can be indirect. Some binding calls cover weakened binding; strength is not graded here. For part of these data: Sequences can lack the tags named with a protein.

Protein sequences, listed by entry. Tags and fused reporters are not part of them. Lines headed by an entry give the natural chain unless they say otherwise; changes in a name come on top. Residues count along the entry.
UniProt P40337: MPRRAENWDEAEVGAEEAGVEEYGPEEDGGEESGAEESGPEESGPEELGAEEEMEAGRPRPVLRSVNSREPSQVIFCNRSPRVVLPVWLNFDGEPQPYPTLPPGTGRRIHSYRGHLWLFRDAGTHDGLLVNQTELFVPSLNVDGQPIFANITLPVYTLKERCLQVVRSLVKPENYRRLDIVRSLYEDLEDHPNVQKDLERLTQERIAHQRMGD
UniProt P38936: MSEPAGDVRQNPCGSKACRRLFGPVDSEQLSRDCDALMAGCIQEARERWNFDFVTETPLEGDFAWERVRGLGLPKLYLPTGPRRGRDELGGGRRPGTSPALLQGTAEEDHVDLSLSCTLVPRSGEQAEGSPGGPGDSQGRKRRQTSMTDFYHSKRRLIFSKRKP
p21-ΔN (residues 50-164), Gal4 DBD fusion: residues 50-164 of P38936
UniProt P46527: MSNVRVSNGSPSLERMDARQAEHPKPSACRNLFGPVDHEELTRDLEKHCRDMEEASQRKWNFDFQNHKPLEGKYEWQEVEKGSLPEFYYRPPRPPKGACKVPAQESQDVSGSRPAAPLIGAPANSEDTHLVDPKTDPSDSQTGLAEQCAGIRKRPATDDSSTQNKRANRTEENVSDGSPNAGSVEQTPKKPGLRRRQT
p27-NT (residues 1-60), Gal4 DBD fusion: residues 1-60 of P46527
p27-ΔN (residues 61-198), Gal4 DBD fusion: residues 61-198 of P46527

What was measured:
HA-tagged pVHL30 (human) = HA-tagged pVHL30 (human) (UniProt P40337); experiment: co-IP; HEK293T transiently transfected with HA-pVHL30 and FLAG-CDKN1; post-nuclear supernatant (20 mM HEPES-Na pH 7.4, 150 mM NaCl, 5 mM CHAPS); anti-VHL antibody on protein A magnetic beads, 4 h at 4 °C; blot with anti-Flag
[1] = target: p21 (CDKN1A), Gal4 DBD fusion (human) (UniProt P38936); experiment: two-hybrid; Matchmaker Gold system, Y190 reporter strain; Gal4AD-pVHL and Gal4BD-CDKN1 fusions; serial dilutions spotted on medium lacking histidine with 30 mM 3-AT, 30 °C, 3 to 8 days
[2] = target: p27 (CDKN1B), Gal4 DBD fusion (human) (UniProt P46527); experiment: as above
[3] = target: T1, p57 (CDKN1C), Gal4 DBD fusion (human) (UniProt P49918); experiment: as above
T1 sequence: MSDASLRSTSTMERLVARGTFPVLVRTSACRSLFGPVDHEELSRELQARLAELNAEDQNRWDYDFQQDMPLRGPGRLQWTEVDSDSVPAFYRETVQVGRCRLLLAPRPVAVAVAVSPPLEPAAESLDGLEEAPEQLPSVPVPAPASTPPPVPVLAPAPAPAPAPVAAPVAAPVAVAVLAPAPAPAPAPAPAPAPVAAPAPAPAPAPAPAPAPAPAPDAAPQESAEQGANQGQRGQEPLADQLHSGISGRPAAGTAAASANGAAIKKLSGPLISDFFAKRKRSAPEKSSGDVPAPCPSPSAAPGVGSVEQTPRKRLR

[4] = target: p27 (CDKN1B), Gal4 DBD fusion (human) (UniProt P46527); experiment: two-hybrid; Y190; pVHL30 with p27 wild type or mutants; selective medium supplemented with 60 mM 3AT to increase the stringency
[5] = target: p27 D37N, Gal4 DBD fusion (human) (UniProt P46527); experiment: as above
[6] = target: p27 E40K, Gal4 DBD fusion (human) (UniProt P46527); experiment: as above
[7] = target: p27 P35L, Gal4 DBD fusion (human) (UniProt P46527); experiment: as above
[8] = target: p27 T42A, Gal4 DBD fusion (human) (UniProt P46527); experiment: as above
[9] = target: p21-ΔN (residues 50-164), Gal4 DBD fusion (human) (UniProt P38936); experiment: two-hybrid; Matchmaker Gold system, Y190 reporter strain; Gal4AD-pVHL and Gal4BD-CDKN1 fusions; serial dilutions spotted on medium lacking histidine with 30 mM 3-AT, 30 °C, 3 to 8 days
[10] = target: p27-NT (residues 1-60), Gal4 DBD fusion (human) (UniProt P46527); experiment: as above
[11] = target: p27-ΔN (residues 61-198), Gal4 DBD fusion (human) (UniProt P46527); experiment: as above
[12] = target: T2, p57-NT (residues 1-61), Gal4 DBD fusion (human) (UniProt P49918); experiment: as above
T2 sequence: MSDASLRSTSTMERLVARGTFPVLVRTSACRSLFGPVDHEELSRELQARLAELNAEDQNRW

[13] = target: T3, p57-ΔN (residues 62-316), Gal4 DBD fusion (human) (UniProt P49918); experiment: as above
T3 sequence: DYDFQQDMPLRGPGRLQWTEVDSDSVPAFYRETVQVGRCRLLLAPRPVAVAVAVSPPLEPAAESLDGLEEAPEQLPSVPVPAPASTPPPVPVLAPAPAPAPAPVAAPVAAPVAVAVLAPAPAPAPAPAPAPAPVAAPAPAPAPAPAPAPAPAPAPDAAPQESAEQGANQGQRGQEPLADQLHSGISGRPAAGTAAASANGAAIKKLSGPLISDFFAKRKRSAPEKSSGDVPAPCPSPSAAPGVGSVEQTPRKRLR

| Substance | binding (HA-tagged pVHL30 (human)) | binding [1] | binding [2] | binding [3] | also measured |
| --- | --- | --- | --- | --- | --- |
| Flag-tagged p27 (CDKN1B) (from UniProt P46527 1-198) | binds |  |  |  |  |
| pVHL N-terminal disordered tail (residues 1-53), Gal4 AD fusion (from UniProt P40337 1-53) (domain or fragment) |  | no binding | no binding | no binding |  |
| pVHL β-domain (residues 54-157), Gal4 AD fusion (from UniProt P40337 54-157) (domain or fragment) |  | binds | binds | binds |  |
| von Hippel-Lindau tumor suppressor protein pVHL30, Gal4 AD fusion (from UniProt P40337 1-213) |  | binds | binds | binds | binding [4]: binds; binding [5]: binds; binding [6]: binds weakly; binding [7]: binds; binding [8]: binds; binding [9]: no binding; binding [10]: binds; binding [11]: no binding; binding [12]: binds; binding [13]: no binding |

Second part, led by results:

| binding (HA-tagged pVHL30 (human)) | binding [1] | binding [2] | binding [3] | Substance | also measured |
| --- | --- | --- | --- | --- | --- |
| binds |  |  |  | Flag-tagged p21 (CDKN1A) (from UniProt P38936 1-164) |  |
|  | binds | binds | binds | pVHL19 isoform (residues 54-213), Gal4 AD fusion (from UniProt P40337 54-213) |  |
